From ChEMBL document CHEMBL5303300, “EUbOPEN Chemogenomics Library - Multiplex” (2023)
For part of its entries the source gives two or more results. Only these are listed. An entry can have further records. Values given together repeat one measurement across runs, samples, wells, individuals or studies.

Tests used:
Type in all cases: toxicity, cell-based
[1] = test system: Fibroblast; experiment: Multiplex assay against human fibroblast; conditions: 1 µM, compound concentration 1 uM, number of replicates 2
Outline: (§1)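 Four dyes were applied at seeding to live cells: Hoechst33342, BioTracker Green Microtubule Cytoskeleton Dye, MitoTracker Red and Annexin V Alexa Fluor 680. Imaging after compound addition used a CQ1 microscope at 37°C and 5% CO2. CellPathfinder machine-learning gating then sorted cells into Hoechst high-intensity objects or normal cells, normal cells into healthy, pyknosed or fragmented nuclei, and pyknosed cells into mitotic or apoptotic, with tubulin, mitochondrial-mass and membrane-permeability phenotypes given as per cents of healthy-nucleus cells.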

[2] = test system: HEK-293T; experiment: Multiplex assay against HEK293T; conditions: human, number of replicates 2; outline: as §1
[3] = test system: U2OS; experiment: Multiplex assay against U2OS; conditions: human, number of replicates 2; outline: as §1
[4] = 48 h, 1 µM, compound concentration 1 uM
[5] = 12 h, 1 µM, compound concentration 1 uM
[6] = 12 h, 10 µM, compound concentration 10 uM
[7] = 24 h, 1 µM, compound concentration 1 uM
[8] = 24 h, 10 µM, compound concentration 10 uM
[9] = 48 h, 10 µM, compound concentration 10 uM

SMILES	Population Mitochondria Different-Phenotype (%) [3, 5]	Total Cell Count [3, 5]	Total Cell Count [3, 6]	Population Mitotic Cells (%) [3, 7]	Total Cell Count [3, 7]	Total Cell Count [3, 8]	Population Fragmented Nuclei (%) [3, 4]	Total Cell Count [3, 4]	Total Cell Count [3, 9]	Population Apoptotic (%) [2, 4]	Population Fragmented Nuclei (%) [3, 6]	Population Fragmented Nuclei (%) [3, 7]	Population Fragmented Nuclei (%) [3, 8]	Population Fragmented Nuclei (%) [3, 9]	other results
CN(C)C/C=C/C(=O)Nc1cccc(S(=O)(=O)N2CCC(NC(=O)c3n[nH]cc3NC(=O)c3c(Cl)cc(Cl)cc3Cl)CC2)c1	5% and 23%	40 and 161	206 and 53	34% and 6%	51 and 166	45 and 186	30% and 7%	45 and 172	43 and 175	–	–	–	–	–	Population Mitochondria Different-Phenotype (%) ([1]; 48 h): 1% and 13%; Population Mitotic Cells (%) [2, 4]: 7% and 26%; Population Membrane Permeable-Phenotype (%) [3, 4]: 0% and 35%; Population Mitochondria Different-Phenotype (%) [3, 4]: 0% and 46%; Population Mitotic Cells (%) [3, 4]: 23% and 2%
COc1cc(N2CCN(C)CC2)ccc1Nc1ncc2c(n1)N(C)c1ccccc1C(=O)N2CC(F)(F)F	3% and 16%	43 and 282	37 and 167	–	39 and 367	33 and 194	14% and 3%	54 and 564	43 and 230	17% and 4%	16% and 2%	15% and 2%	–	–	Population Healthy Nuclei (%) [3, 9]: 16% and 54%
Br.Oc1cc2c(cc1O)C(c1ccccc1)CNCC2 (centres undefined)	–	50 and 286	18 and 223	–	49 and 385	17 and 343	–	98 and 728	35 and 662	–	27% and 4%	–	17% and 2%	20% and 2%	Population Mitotic Cells (%) ([1]; 12 h): 13% and 55%; Population Mitotic Cells (%) ([1]; 48 h): 10% and 45%; Population Apoptotic (%) [2, 9]: 3% and 15%; Population Apoptotic (%) [3, 5]: 0% and 50%; Population Pyknosed Nuclei (%) [3, 6]: 38% and 10%; Population Pyknosed Nuclei (%) [3, 9]: 25% and 6%
CNC(=O)c1nn(C)c2c1C(C)(C)Cc1cnc(Nc3ccc(N4CCN(C)CC4)cc3)nc1-2 [MILCICLIB]	–	–	46, 41, 193, 200	–	–	49, 44, 190, 187	–	–	42, 45, 172, 186	–	17, 14, 4, 3%	–	14, 25, 3, 4%	7, 33, 5, 8%	Population Mitotic Cells (%) [2, 6]: 28, 36, 5, 19%; Population Mitotic Cells (%) [2, 8]: 26, 16, 5, 29%; Population Membrane Permeable-Phenotype (%) [3, 6]: 45, 35, 12, 18%; Population Membrane Permeable-Phenotype (%) [3, 8]: 14, 50, 22, 20%
N[C@@H]1c2cccnc2[C@H](OC(=O)N2CCC(n3c(=O)[nH]c4ncccc43)CC2)CC[C@H]1c1cccc(F)c1F [RIMEGEPANT]	–	53 and 243	42 and 248	–	57 and 338	48 and 367	–	92 and 659	57 and 614	–	–	–	–	–	Population Fragmented Nuclei (%) ([1]; 24 h): 4% and 20%; Population Mitochondria Different-Phenotype (%) [2, 8]: 27% and 7%
O=S(=O)(c1ccccc1)N(CC(F)(F)F)c1ccc(C(O)(C(F)(F)F)C(F)(F)F)cc1 [T091317]	–	41 and 224	39 and 183	0% and 43%	65 and 326	49 and 217	24% and 2%	63 and 643	317 and 65	9% and 31%	35% and 6%	36% and 4%	20% and 5%	–	Population Fragmented Nuclei (%) [3, 5]: 27% and 4%; Population Membrane Permeable-Phenotype (%) [3, 5]: 16% and 1%; Population Membrane Permeable-Phenotype (%) [3, 7]: 13% and 1%
